# Results: the supplement of paper PMC7726561
# Whole data set: some 1,400 sequences, median “thermal melting temperature (Tm) of peptide-HLA complex” near 60, cut for the lowest 2% near 45. The list shows a part of the results.
# Biological target: HLA-B*07:02
# Assay: thermal melting temperature (Tm) of peptide-HLA complex; higher = more thermostable pHLA complex
# Details: C1R-B*07:02
# 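Note: cell lysates heated 10 min at 37–73 °C, remaining pHLA pulled down with pan-class I antibody, peptides quantified by DIA-MS versus 37 °C, Tm where half the complex is lost.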
row,Sequence,thermal melting temperature [°C]
1,APYERRAMEL,54.2
2,TPRATLITF,62.2
3,NPRATFSEF,59.6
4,GPHISYPPL,62.2
5,TPDPQRVPL,48.2
6,SPTDPFNRQTL,58.2
7,SPAPPLLHV,60.8
8,GPRSPSVIFM,62.2
9,TPFPFRTGL,61.3
10,SPRTLNLSQL,59.5
11,NPRSVTLLI,60.8
12,KPMEGWIAV,60.7
13,LPQPVPLSV,62.6
14,IPMKLAGL,60.3
15,RPASGSPFQL,52.6
16,VARPLSTAL,59.6
17,KPVNRISL,57.3
18,TPYNYPVPV,62.4

row,Sequence,thermal melting temperature [°C]
1,APMGIRLSP,60.3
2,LPELKSTL,60.8
3,APSDLRTIQTF,62.8
4,TPRNPNSAILL,59.3
5,APRAALVFAL,63.2
6,LPSWGRAEL,62.8
7,APTPIQALTL,60.5
8,APKSQIVML,61.9
9,GSISRIYL,41.4
10,KPLGPTAAF,61.1
11,MPDVGRSMQQL,61.3
12,IPRSILMTTF,60.2
13,HPRSPTPTL,58.2
14,NPFLRQELL,61.5
15,RPIAPAPPSTL,59.7
16,SPRKLPTSL,58.1
17,VPMPLPTVL,62.6
18,SPANLPAVL,62.6
